Source: article PMC5700166
The list shows a part of the results, in another mix than the full data. The list includes weakly bound sequences.

Experiments:
Assay in all cases: protein-binding microarray (PBM)
Details in all cases: PBM: ~300 nM protein, 6 mM HEPES pH 7.8, 80 mM KCl, 0.5 mM EDTA, 0.5 mM EGTA, 6% glycerol, 35 ng/ul poly-dIdC, 1% milk, 1 h, room temperature; Ap Aiptasia and Nv Nematostella (sea anemones) / Co Capsaspora / Aq Amphimedon (sponge) / Dm Drosophila / Hu human; RHD is the Rel homology domain; high values mean tight binding; most listed sequences are background and not binding sites; double strand, one strand shown
[1] = molecular target: T1, GST-Ap-NF-kB RHD (UniProt A0A913YAJ5)
T1 sequence: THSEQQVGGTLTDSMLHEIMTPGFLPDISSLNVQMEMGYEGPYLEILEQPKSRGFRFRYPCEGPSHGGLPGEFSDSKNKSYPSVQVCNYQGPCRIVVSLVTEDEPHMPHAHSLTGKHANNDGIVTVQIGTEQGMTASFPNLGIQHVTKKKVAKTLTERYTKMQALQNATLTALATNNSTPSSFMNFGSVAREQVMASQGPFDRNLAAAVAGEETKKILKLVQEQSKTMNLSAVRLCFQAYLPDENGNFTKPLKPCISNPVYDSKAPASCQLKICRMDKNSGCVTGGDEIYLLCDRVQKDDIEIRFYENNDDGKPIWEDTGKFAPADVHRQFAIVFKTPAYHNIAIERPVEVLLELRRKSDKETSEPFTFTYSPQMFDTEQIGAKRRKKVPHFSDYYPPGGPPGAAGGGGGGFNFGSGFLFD

[2] = molecular target: T2, GST-Nv-NF-kB (Cys allele) (UniProt E5G601)
T2 sequence: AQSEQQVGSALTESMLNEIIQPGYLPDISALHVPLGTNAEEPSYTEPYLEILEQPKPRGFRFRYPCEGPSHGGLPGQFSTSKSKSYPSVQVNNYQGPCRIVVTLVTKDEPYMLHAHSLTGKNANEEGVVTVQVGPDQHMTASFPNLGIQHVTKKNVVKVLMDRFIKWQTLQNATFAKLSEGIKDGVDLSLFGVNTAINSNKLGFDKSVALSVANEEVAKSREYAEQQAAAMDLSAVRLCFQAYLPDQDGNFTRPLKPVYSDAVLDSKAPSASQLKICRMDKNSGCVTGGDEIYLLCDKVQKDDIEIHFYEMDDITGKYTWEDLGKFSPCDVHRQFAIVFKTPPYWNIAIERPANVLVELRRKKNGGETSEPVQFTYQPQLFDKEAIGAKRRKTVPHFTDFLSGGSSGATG

[3] = molecular target: T3, GST-Co-NF-kB (UniProt F1ARL5)
T3 sequence: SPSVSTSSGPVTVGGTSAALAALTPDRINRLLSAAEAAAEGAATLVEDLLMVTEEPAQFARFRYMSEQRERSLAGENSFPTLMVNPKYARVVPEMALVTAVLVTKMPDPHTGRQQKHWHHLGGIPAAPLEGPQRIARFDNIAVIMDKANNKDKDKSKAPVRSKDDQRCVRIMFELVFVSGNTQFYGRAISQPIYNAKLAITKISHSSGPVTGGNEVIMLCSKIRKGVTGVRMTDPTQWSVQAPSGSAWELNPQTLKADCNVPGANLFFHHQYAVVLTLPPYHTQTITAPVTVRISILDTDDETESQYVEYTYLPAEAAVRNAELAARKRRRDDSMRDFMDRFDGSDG

[4] = molecular target: T4, GST-Dm-Relish (UniProt Q94527)
T4 sequence: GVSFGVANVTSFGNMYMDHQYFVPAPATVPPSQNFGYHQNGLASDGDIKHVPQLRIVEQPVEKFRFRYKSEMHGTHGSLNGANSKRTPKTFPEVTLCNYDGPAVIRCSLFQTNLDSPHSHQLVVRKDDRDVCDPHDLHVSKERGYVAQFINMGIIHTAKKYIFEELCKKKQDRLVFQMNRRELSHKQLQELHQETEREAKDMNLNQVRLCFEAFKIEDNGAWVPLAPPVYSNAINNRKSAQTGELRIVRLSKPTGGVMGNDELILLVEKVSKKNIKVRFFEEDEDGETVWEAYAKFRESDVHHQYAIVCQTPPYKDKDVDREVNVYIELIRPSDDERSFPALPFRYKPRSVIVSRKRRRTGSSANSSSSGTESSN

[5] = molecular target: T5, GST-Aq-NF-kB (UniProt A9Y5G7)
T5 sequence: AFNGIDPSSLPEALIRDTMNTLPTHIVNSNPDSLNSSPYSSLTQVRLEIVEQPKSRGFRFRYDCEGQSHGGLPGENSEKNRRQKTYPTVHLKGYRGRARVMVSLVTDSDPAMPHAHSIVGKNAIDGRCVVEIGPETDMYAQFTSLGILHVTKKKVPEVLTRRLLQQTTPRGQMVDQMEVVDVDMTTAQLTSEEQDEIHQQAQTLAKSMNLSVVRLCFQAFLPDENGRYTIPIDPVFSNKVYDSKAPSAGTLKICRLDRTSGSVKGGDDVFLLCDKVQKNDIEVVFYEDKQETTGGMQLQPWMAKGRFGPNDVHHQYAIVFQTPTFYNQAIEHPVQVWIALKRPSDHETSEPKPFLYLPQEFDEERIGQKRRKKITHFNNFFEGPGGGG

Sequence	binding signal [1] [z-score]	binding signal [2] [z-score]	binding signal [3] [z-score]	binding signal [4] [z-score]	binding signal [5] [z-score]
CCGATTAACATCACCAACCCGAGTGATGTTAATCGGGTCTTGATTCGCTTGACGCTGCTG	0.166	0.603	0.5	0.794	-0.0652
CCGATTAACATCACCCACCGATTTGATGTTAATCGGGTCTTGATTCGCTTGACGCTGCTG	1.07	-0.351	0.72	0.918	0.633
CCGATTAACATCAATGTGAAATATGATGTTAATCGGGTCTTGATTCGCTTGACGCTGCTG	-0.639	-0.154	0.404	0.327	-0.531
CCGATTAACATCAACTTCTTGGATGATGTTAATCGGGTCTTGATTCGCTTGACGCTGCTG	-0.421	0.0331	0.131	-0.29	-0.382
CCGATTAACATCAACGTCCTGATTGATGTTAATCGGGTCTTGATTCGCTTGACGCTGCTG	0.145	0.104	-0.0496	-0.12	-0.0908
CCGATTAACATCAGAATTATATCTGATGTTAATCGGGTCTTGATTCGCTTGACGCTGCTG	-0.804	0.0933	-0.37	-0.104	-0.268
CCGATTAACATCAGGAATTTCAATGATGTTAATCGGGTCTTGATTCGCTTGACGCTGCTG	-0.164	-0.126	0.109	-0.0399	0.414
CCGATTAACATCACGGAGAATCCTGATGTTAATCGGGTCTTGATTCGCTTGACGCTGCTG	-1.13	-1.39	-0.636	-0.319	1.18
CCGATTAACATCAAGTATCTCGTTGATGTTAATCGGGTCTTGATTCGCTTGACGCTGCTG	-0.718	0.37	0.00372	-0.619	-0.577
CCGATTAACATCAAAAACGTAGATGATGTTAATCGGGTCTTGATTCGCTTGACGCTGCTG	-0.636	-0.272	0.325	-0.299	-0.469
